Assay results: PubChem BioAssay AID485294 (National Center for Advancing Translational Sciences (NCATS), 2010)
In all, about 370,000 compounds went through this assay and about 150 (0.041%) were called active. Inconclusive means that the source gave no clear call. Such entries were picked first, then a sample of the others. Calls follow the shape of the dose curve; as a rule, active = well fitted inhibition curve with a large enough effect; inconclusive = small, poorly fitted or top-dose-only effect; inactive = flat fitted curve, though single readings scatter. Potencies of inconclusive entries are left out as doubtful fits.

The compounds below were run against Beta-lactamase (Escherichia coli (strain K12)) (UniProt P00811) (assay: qHTS Inhibitors of AmpC Beta-Lactamase (assay with detergent)). Conditions: AmpC hydrolysis of nitrocefin, absorbance 480 nm, 0.01% Triton; activity change, negative = inhibition: at 114 µM (top of the series).
UniProt P00811, sequence (P00811 whole entry, looked up): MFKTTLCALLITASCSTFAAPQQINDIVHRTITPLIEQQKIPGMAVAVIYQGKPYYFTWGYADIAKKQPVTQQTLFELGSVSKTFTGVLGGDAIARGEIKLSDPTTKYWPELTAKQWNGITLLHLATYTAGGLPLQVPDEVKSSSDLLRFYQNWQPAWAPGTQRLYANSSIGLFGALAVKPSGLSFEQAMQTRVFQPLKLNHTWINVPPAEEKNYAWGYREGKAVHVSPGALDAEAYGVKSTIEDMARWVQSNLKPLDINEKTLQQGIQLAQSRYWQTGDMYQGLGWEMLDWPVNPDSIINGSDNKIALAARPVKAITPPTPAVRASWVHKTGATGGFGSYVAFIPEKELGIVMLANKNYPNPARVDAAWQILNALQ
In short: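 AmpC (5.3 nM in the dispensed reagent) in 20 mM phosphate pH 7.0 with 0.01% (detergent screen) or 0.0001% Triton X-100 was preincubated with compounds for 15 min at room temperature. Nitrocefin was then added from an 800 uM solution, and hydrolysis was followed at 480 nm.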
Also: nearly all actives have a fitted effect of over 25% in size.
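For activity change, negative = inhibition in this document: 0% = no-compound wells and -100% = no-enzyme wells.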
Potency is read from the fitted curve at half-maximal effect; tags tell the direction and shape of the fitted curve.

SMILES | activity change, negative = inhibition | Potency
O=C(Cc1ccccc1)Nc1ccc(NC(=O)c2cccs2)cc1 | inactive: -3.68% | –
Cc1c(O)c2c3c(cccc3c1O)C(=O)N(c1ccccc1)C2=O | – | inconclusive [inhibitor, partial curve]
CCOC(=O)c1cn(CC(=O)Nc2ccc(CC)cc2)nn1 | – | inconclusive [inhibitor, full curve, poor fit]
CCOC(=O)c1sc(NC(=O)c2cncc(Br)c2)nc1C | – | inconclusive [inhibitor, full curve, poor fit]
CCOC(=O)C(C)Oc1cccc2c(=O)n(CC(=O)Nc3cccc(OC)c3)ccc12 (stereo not given) | – | inconclusive [inhibitor, partial curve, poor fit]
CN(C)c1cc[n+](CC(=O)Nc2ccc(Cl)c([N+](=O)[O-])c2)cc1 | inactive: -3.21% | –
CCOC(=O)C1(C(F)(F)F)N=C(c2cccnc2)OC(N2CCCCC2)=N1 (stereo not given) | – | inconclusive [inhibitor, full curve, poor fit]
COC(=O)c1ccccc1NC(=O)Cn1cnc2ccc(S(=O)(=O)N3CCC(C)CC3)cc2c1=O | – | inconclusive [inhibitor, full curve, poor fit]
C/C(=N\NC(=O)C(O)c1ccccc1)c1cccnc1 (stereo not given) | – | inconclusive [inhibitor, full curve]
COCC(=O)Nc1ccc2c(c1)OCC(=O)N2Cc1ccccc1F | – | inconclusive [inhibitor, full curve, poor fit]
COc1ccc(N2CC(NC(=O)C3CC3)CC2=O)cc1 (stereo not given) | inactive: 0.621% | –
O=C(Nc1nc2c(s1)CCCC2)c1ccc(Br)o1 | inactive: -13% | –
NS(=O)(=O)c1ccc(CCN2C(=O)/C(=C\c3ccc(Cl)cc3)SC2=S)cc1 | – | inconclusive [inhibitor, partial curve]
COC(C(=O)Nc1ccnn1C1CCN(Cc2cnn(C(C)C)c2)CC1)c1ccccc1 (stereo not given) | inactive: 2.34% | –
Cc1c(C(=O)N(C)CCOc2ccccc2)oc2c(Cl)cccc12 | – | inconclusive [inhibitor, full curve, poor fit]
CCN1CCN(C(=S)c2ccc(SC)cc2)CC1 | – | inconclusive [inhibitor, partial curve, poor fit]
CC(=O)N(CN1C(=O)c2ccccc2C1=O)c1ccccc1 | – | inconclusive [inhibitor, full curve, poor fit]
Cc1cc(C)n(CC(O)COc2ccc3ccccc3c2)n1 (stereo not given) | inactive: -7.04% | –
CCC/C(=N\NC(=O)c1ccco1)c1ccc(Cl)s1 | – | inconclusive [inhibitor, full curve, poor fit]
COc1cccc(-c2nnc3sc(-c4ccc(Cl)cc4)nn23)c1 | – | inconclusive [inhibitor, full curve, poor fit]
Cc1ccccc1SCC(=O)N1CCN(c2ccc(C(F)(F)F)cn2)CC1 | inactive: -13.4% | –
CC1CCN(CC(O)COc2ccc(F)cc2)CC1 (stereo not given) | – | inconclusive [inhibitor, full curve, poor fit]
O=C(OCCc1cc2ccccc2c(=O)o1)c1cccs1 | inactive: -2.06% | –
COc1ccc(-n2c(SCC3OCCO3)nc3c(sc(=S)n3-c3ccccc3)c2=O)cc1OC | – | inconclusive [inhibitor, single point]

SMILES | activity change, negative = inhibition | Potency
COCCNC(=O)Cn1cnc2sc(C)c(S(=O)(=O)N3CCN(c4ccccc4OC)CC3)c2c1=O | – | inconclusive [inhibitor, single point]
Cc1ccc2c(c1)N(CC(=O)NCc1cccs1)C(=O)C(C)O2 (stereo not given) | – | inconclusive [inhibitor, partial curve, poor fit]
COc1ccc(C(C)=O)cc1CSc1nnc(Nc2ccc(C)cc2)s1 | inactive: -7.38% | –
CN(C)CCCNC(=O)CCC1CCCCC1 | inactive: -5.61% | –
CCCN(CCC)C(=O)C1CCN(c2cc(C)nc3c(-c4ccc(OC)c(OC)c4)c(C)nn23)CC1 | – | inconclusive [inhibitor, full curve, poor fit]
C/C=C/C=N/Nc1nc(C)cc(=O)[nH]1 | inactive: -0.24% | –
CCN(CC(=O)NCc1cccs1)C(=O)CCC(=O)c1ccc(C)cc1 | – | inconclusive [inhibitor, full curve, poor fit]
COc1ccc2c(c1)c1c(c(=O)n(-c3cccc(Cl)c3)c(=O)n1CC(=O)NCC1CCCO1)n2C (stereo not given) | inactive: 24.3% | –
O=C(NCCc1ccccc1)/C(=C\c1cccc([N+](=O)[O-])c1)NC(=O)c1ccco1 | – | inconclusive [inhibitor, full curve, poor fit]
COc1ccc(NC(=S)NCCN2CCOCC2)cc1 | – | inconclusive [inhibitor, single point]
Cc1ccc2c(c1)N(CC(=O)N1CCCCCC1)C(=O)CO2 | – | inconclusive [inhibitor, full curve, poor fit]
CC(=O)N(CCC(c1ccco1)C(C)C)Cc1ccc(OC(C)C)cc1 (stereo not given) | inactive: 3.84% | –
CCOC(=O)c1c(S(=O)(=O)NCC(=O)Nc2ccc(C(C)=O)cc2)c(C)n(C)c1C | inactive: -5.52% | –
O=Cc1sc(Nc2ccccc2)nc1Cl | inactive: 4.99% | –
OCCC1CN(Cc2cccc(F)c2F)CCN1CCc1ccccc1 (stereo not given) | inactive: -9.08% | –
CC1CCN(CC(O)COc2cccc(F)c2)CC1 (stereo not given) | – | inconclusive [inhibitor, full curve]
N#Cc1c(-c2ccccc2)cc(-c2ccc3c(c2)OCO3)[nH]c1=O | – | inconclusive [inhibitor, partial curve, poor fit]
COc1ccc(-c2nc(CCNC(=O)c3ccccc3)cs2)cc1OC | inactive: 2.12% | –
Cc1ccc(S(=O)(=O)N2CCCC(N3CCOCC3)C2)cc1Cl (stereo not given) | – | inconclusive [inhibitor, full curve, poor fit]
CC1(C)CC(=O)C(C=NCCN2CCN(CCc3ccccc3)CC2)=C(O)C1 | – | inconclusive [inhibitor, single point]
CCn1c(-c2nn(C)c(C)c2Cl)n[nH]c1=S | – | inconclusive [inhibitor, partial curve, poor fit]
CCCC(=O)NCCc1nc2ccccc2n1CCC | – | inconclusive [inhibitor, full curve]
O=c1[nH]c2ccccc2s1 | – | inconclusive [inhibitor, full curve, poor fit]
CCOC(=O)c1cnc(-n2nc(C)cc2C)nc1NC | inactive: -1.4% | –

SMILES | activity change, negative = inhibition | Potency
Cc1ccccc1Nc1c([N+](=O)[O-])ccc2c1=NC1(CCCCC1)N=2 | – | inconclusive [inhibitor, single point]
Cc1ccccc1-c1noc(-c2ccccc2C(=O)N2CCCC2)n1 | inactive: -6.12% | –
c1ccc(-c2nnsc2-c2ccccc2)cc1 | – | inconclusive [inhibitor, full curve, poor fit]
Cc1sc2ncnc(-n3cnc4ccccc43)c2c1C | – | inconclusive [inhibitor, partial curve, poor fit]
Cc1ccc(NC(=O)C(NCc2ccccn2)c2ccccc2)cc1 (stereo not given) | – | inconclusive [inhibitor, partial curve]
O=c1c2c3c(sc2ncn1Cc1ccc(F)cc1)CCC3 | inactive: -2.37% | –
O=C(CN1CCN(S(=O)(=O)c2ccc(F)c(Cl)c2)CC1)N1CCNC1=O | – | inconclusive [inhibitor, partial curve, poor fit]
Cc1csc(NC(=O)CSc2nc(=O)n(CCN(C)C)c3c2CCCC3)n1 | – | inconclusive [inhibitor, full curve, poor fit]
O=C(c1ccc(S(=O)(=O)Cc2ccccc2Cl)c([N+](=O)[O-])c1)N1CCOCC1 | – | inconclusive [inhibitor, full curve]
CCOC(=O)c1nnc(-c2ccccc2)nc1NCc1ccccc1 | – | inconclusive [inhibitor, partial curve]
O=C(NCC(c1ccco1)N1CCN(c2ccccc2F)CC1)c1ccc2c(c1)OCO2 (stereo not given) | – | inconclusive [inhibitor, full curve, poor fit]
NCCCCCc1cn([C@@H](CCC(=O)O)C(=O)NCCCCCCCCCCC(=O)N2CCNCC2)nn1 | – | inconclusive [inhibitor, single point]
Cc1cc(C)cc(CC(Cc2nc3ccccc3[nH]2)c2nc3ccccc3[nH]2)c1 (stereo not given) | – | inconclusive [inhibitor, full curve, poor fit]
O=C(OCC(=O)N1CCCC1=O)c1ccc(O)cc1O | – | inconclusive [inhibitor, full curve, poor fit]
O=C1C(NS(=O)(=O)c2cccs2)=C(N2CCOCC2)C(=O)c2ccccc21 | inactive: 5.41% | –
CCC(C)c1ccc(-n2c(=O)c3ccccc3n3c(=S)[nH]nc23)cc1 (stereo not given) | inactive: -14.3% | –
O=C(COc1ccc(Br)cc1)N1CCN(S(=O)(=O)/C=C/c2ccccc2)CC1 | – | inconclusive [inhibitor, partial curve, poor fit]
Cc1ccc(Cl)cc1-n1ncc2c(Nc3ccc4c(c3)OCCO4)ncnc21 | inactive: 3.91% | –
Cc1ccnc(Nc2nc3ccccc3o2)n1 | – | inconclusive [inhibitor, partial curve]
Cc1ccc2nc(NC(=O)CN3C(=O)NC4(CCCCC4)C3=O)sc2c1 | – | inconclusive [inhibitor, full curve, poor fit]
CCOc1cc(S(=O)(=O)NCCc2ccc(OC)c(OC)c2)c(OCC)cc1-n1cnnn1 | – | inconclusive [inhibitor, single point]
C[C@H]1CCC[C@]2(C)C[C@H]3OC(=O)C(CN4CCCCCC4)[C@H]3C=C12 (stereo not given in full) | inactive: -1.63% | –
